In PubChem BioAssay AID485344 (National Center for Advancing Translational Sciences (NCATS), 2010):
The whole screen tested about 340,000 compounds, of which about 6,900 (2%) were called active. Cut-off read from the data, not from the text of the source: active = inhibition above about 30%; inactive = below that, where a call was filed. The entries are a selection whose mix differs from that of the whole data set. The source gives no active or inactive call for entries shown without one.

What follows are compounds tested against D(2) dopamine receptor (Homo sapiens) (UniProt P14416) (assay: HTS Assay for Allosteric Antagonists of the Human D2 Dopamine Receptor: Primary Screen for Antagonists). Conditions: HEK293 TREx D2 cells, calcium flux, dopamine EC80; at 10 µM; stronger effect = higher value.
How it was run: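 Tetracycline-induced HEK293 T-REx cells expressing D2 force-coupled to calcium signalling were dye-loaded, exposed to compound for 180 s, then challenged with an EC80 of dopamine; calcium flux was followed kinetically for a further 180 s.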
Note: 0% is about no effect.

Chain of UniProt P14416 (P14416 whole entry, looked up): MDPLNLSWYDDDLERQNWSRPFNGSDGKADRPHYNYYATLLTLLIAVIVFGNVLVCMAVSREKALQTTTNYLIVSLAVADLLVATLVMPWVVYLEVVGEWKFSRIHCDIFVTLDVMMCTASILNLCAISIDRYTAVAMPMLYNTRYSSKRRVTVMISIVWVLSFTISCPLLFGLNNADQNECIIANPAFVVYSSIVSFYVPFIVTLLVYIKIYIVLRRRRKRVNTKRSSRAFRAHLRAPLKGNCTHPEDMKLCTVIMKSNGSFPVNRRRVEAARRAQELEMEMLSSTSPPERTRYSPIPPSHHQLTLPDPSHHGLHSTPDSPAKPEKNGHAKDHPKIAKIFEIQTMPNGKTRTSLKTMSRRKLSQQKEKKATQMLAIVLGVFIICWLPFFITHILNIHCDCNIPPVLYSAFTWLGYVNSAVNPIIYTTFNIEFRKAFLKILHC

Compound	inhibition
Cc1cc2oc(C(=O)Nc3cccc(-c4nc5ccccc5o4)c3)c(C)c2cc1C	9.08%
COc1ccc(-n2nc3cc(C)c(NC(=O)Cc4ccc(Cl)cc4)cc3n2)cc1	-8.8%
COc1ccc(OC)c(CNC(=O)CN2N=C(c3ccc(Cl)cc3)CCC2=O)c1	4.2%
O=C(NCCc1ccc(Cl)cc1)C(=O)NCC(c1cccs1)S(=O)(=O)c1cccs1 (stereo not drawn)	-3.35%
CC(C)Oc1ccc(CNC(=O)c2ccc3c(c2)N(C)CCS3)cc1	active: 46.6%
COc1ccc(C(=O)Nc2cc(-c3nc4ccccc4s3)ccc2OC)cc1	10.4%
COC(=O)C1=C(C(=O)OC)N2C=CC=CC2(C)C(C(=O)OC)=C1C(=O)OC (stereo not drawn)	active: 32.3%
O=C(Nc1ccc2nc(SCC(=O)N3CCOCC3)sc2c1)c1ccc(Br)cc1	-11.5%
CCC(C)NC(=O)CSc1c2c(nc3cc(Cl)ccc13)CCCC2 (stereo not drawn)	-5.09%
COc1cccc(CNC(=O)C(=O)NCC(c2ccc3c(c2)OCO3)N2CCOCC2)c1 (stereo not drawn)	-7.17%
CCCOC1(C(F)(F)F)NC(=O)N(c2cccc(Cl)c2)C1=O (stereo not drawn)	1.05%
CCOC(=O)N1CCN(S(=O)(=O)CCNC(=O)c2ccc(OC)cc2)CC1	active: 34.1%
CCCN1CCN(CC2=C(C(=O)OCC)C(c3ccc(OC(C)C)cc3)NC(=O)N2)CC1 (stereo not drawn)	-6.8%
CSc1nc2c(sc3ccccc32)c(=O)n1Cc1ccc(C)cc1	0.848%
CCn1c(=O)c(=O)n(CC)c2cc(N3CCCCC3)c(NC(=O)c3ccccc3OC)cc21	4.25%
CC1CCC(=NNC(=O)Cc2ccccc2)CC1 (stereo not drawn)	active: 43.5%
CCOc1ccc(-c2nc(CSCC(=O)NCCc3ccc(OCC)c(OCC)c3)c(C)o2)cc1	-15.5%
COc1ccccc1-c1c(C)nn2c(N3CCN(c4ccccc4)CC3)cc(C)nc12	10.9%
Cc1ccc(Cl)cc1NC(=O)C1CCCN(c2cnccn2)C1 (stereo not drawn)	-14.9%
O=C(NCc1ccccc1)C(=O)NCC(c1ccco1)S(=O)(=O)c1cccs1 (stereo not drawn)	-7.2%
CCc1nn(CC(=O)Nc2cccc(C(C)=O)c2)c(=O)c2cc3sccc3n12	13.5%
CCS(=O)(=O)c1ncc(Cl)c(C(=O)NCc2ccc(OC)cc2)n1	-12.9%
CN(C)c1ccc(C(CNS(=O)(=O)c2ccc(Cl)cc2)N2CCOCC2)cc1 (stereo not drawn)	-11.8%
CCOC(=O)c1ccccc1NC(=O)Cn1c(=O)n(Cc2nc(C)no2)c(=O)c2ccccc21	-15.5%

Compound	inhibition
CN(c1ccccc1C(=O)O)S(=O)(=O)c1ccc2[nH]c(=O)oc2c1	-8.71%
O=C(CCn1c(=O)c2ccccc2n(Cc2cccc(Cl)c2)c1=O)NCCc1ccccc1	-6.98%
CSc1ccc(CCNC(=O)c2ccc3c(Cl)c4c(nc3c2)CCCC4)cc1	-13.7%
CCCSc1ncc(Cl)c(C(=O)Nc2nc3ccc(C)cc3s2)n1	12.9%
CCc1ccccc1NC(=O)Cn1nc(C(F)(F)F)c2c1CCC2	0.788%
Cc1cc(C)c2c(CC(=O)Nc3ccccc3C(F)(F)F)coc2c1	0.27%
COc1ccc(S(=O)(=O)c2c(O)c3ccc(C(=O)Nc4ccccc4)cc3[nH]c2=O)cc1	-3.7%
Cc1cccc(N2CCN(C(=O)C3CCN(c4ncnc5c4nc4n5CCCCC4)CC3)CC2C)c1 (stereo not drawn)	27.1%
COc1cc(Nc2ncc3c(n2)CCN(Cc2cccc(C)c2)C3)cc(OC)c1	1.05%
Cn1c(=O)c2c(nc(Oc3ccccc3Cl)n2Cc2ccc(C#N)cc2)n(C)c1=O	24.7%
Cn1nnnc1SCCCNCc1cccc(OCc2ccc(F)cc2)c1	-6.91%
Cc1oc2c(C)c3oc(=O)c(CC(=O)N4CCCCC4)c(C)c3cc2c1C	15.8%
CCc1nn(C(C)C(=O)N2CCN(c3ccccc3)CC2)c(=O)c2cc3occc3n12 (stereo not drawn)	0.576%
CCCN(CCC)C(=O)C(Cc1ccccc1)NS(=O)(=O)c1ccc2c(c1)c(=O)n(C)c(=O)n2C (stereo not drawn)	-5.47%
Cc1ccccc1CCNC(=O)C1CCN(S(=O)(=O)c2ccc3c(ccn3C)c2)CC1	-7.76%
Cc1cccc(C)c1NC(=O)Cn1nnc(C(=O)NCc2ccc(F)cc2)c1N	8.33%
CS(=O)(=O)c1ccc2nc(NC(=O)C3CCCCC3)sc2c1	active: 30.6%
O=C(NCc1ccccc1)c1cc2ccc3cccnc3c2[nH]1	-11.6%
CCc1ccc(-n2c(=O)c3c4c(sc3n(CC(=O)c3ccc(Br)cc3)c2=O)CCC4)cc1	-22.5%
CC(C)(C)NC(=O)c1oc2ccccc2c1NC(=O)c1ccccc1F	-4.28%
Cc1ccc(S(=O)(=O)Nc2ccc3nc(-c4ccc(F)cc4)oc3c2)cc1	15.6%
CC1=C(C(=O)N2CCN(c3ccccc3)CC2)C2(CCCCC2)OC1=O	-1.16%
CCC(C)NC(=O)CCC(=O)N1Cc2ccccc2Oc2ncccc21 (stereo not drawn)	10%
COc1cc(NC(=O)Cn2c(=O)ccc3cc(S(=O)(=O)N4CCCC4)ccc32)cc(OC)c1	-3.03%
